This passage reports enrichment score results from the supplement of paper PMC10369915.

This is one part of the list. Rule as the data show it: active = 3.2 or more and inactive = the rest. The signal is at background level for most entries.
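Also: displayed peptides selected on beads carrying the immobilized SH2 domain, with library peptides lacking any tyrosine serving as negative controls.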

The first assay concerns the target SHP2 C-SH2 domain E139D. Kind of assay: enrichment score (SH2-bound / input frequency) (ratio); bacterial display of known human phosphotyrosine sites (pTyr-Var adds point mutants) read by sequencing; higher = stronger binding; tyrosines were phosphorylated by kinases first. Particulars: peptide library: pTyr-Var.
In the case of AIFWRYSKFFD [SH3PXD2B_Y45_R43W_YF], the enrichment score is inactive: 2.96.

As for RPSGRYPVARR [SHANK3_Y1569], the enrichment score is inactive: 0.248.

Consider PGQRVYVVAER [SHH_Y316], for which the enrichment score is inactive: 1.05.

As to AIGCEYSEINI [SIGLEC12_Y588_Y586C], the enrichment score is inactive: 1.05.

As for RPGGRYPVARR [SHANK3_Y1569_S1566G], the enrichment score was inactive: 0.175.

As to STEAIYRRYSK [SH3PXD2B_Y42], the enrichment score is inactive: 0.47.

For KTAFSYTSSST [SIM1_Y356_P352T], the enrichment score was inactive: 0.977.

As to AIGFEYSEINI [SIGLEC12_Y588_YF], the enrichment score is inactive: 0.849.

KSNSDYVDVLP [SH2D1B_Y127_N122K]: the enrichment score was inactive: 0.648.

On to LLREWYVQDPF [SIX3_Y225_L226V_YF], for which the enrichment score is inactive: 2.02.

Consider LLREWYLPDPY [SIX3_Y225_Q227P], for which the enrichment score was inactive: 2.97.

Regarding GQSKGYRPKLY [SIPA1L3_Y1376], the enrichment score is inactive: 0.494.

With LLREWYLPDPF [SIX3_Y225_Q227P_YF], the enrichment score is inactive: 2.17.

Consider QFQLKYSETPF [SIX6OS1_Y129_YF], for which the enrichment score is inactive: 1.03.

Take AKKVFYVNETR [SHH_Y253_I255N]: the enrichment score was inactive: 0.946.

For the molecule AIGYEYSEINI [SIGLEC12_Y588], the enrichment score is inactive: 0.901.

Take ERFSFYGMKAV [SLC15A2_Y61_YF]: the enrichment score is inactive: 0.674.

For PTYKHYANSTQ [SLC12A3_Y70_E68K], the enrichment score is inactive: 0.473.

Take ALLVFYAATIA [SLC20A2_Y187_P184L]: the enrichment score was inactive: 1.54.

For another assay, the target named is SHP2 C-SH2 domain wild-type. Described as above. The settings on record: peptide library: pTyr-Var.
In the case of AIFWRYSKFFD [SH3PXD2B_Y45_R43W_YF], the enrichment score was inactive: 2.4.

With RPSGRYPVARR [SHANK3_Y1569], the enrichment score was inactive: 0.232.

In the case of PGQRVYVVAER [SHH_Y316], the enrichment score is inactive: 0.915.

Turning to AIGCEYSEINI [SIGLEC12_Y588_Y586C], the enrichment score was inactive: 1.02.

In the case of RPGGRYPVARR [SHANK3_Y1569_S1566G], the enrichment score is inactive: 0.202.

In the case of STEAIYRRYSK [SH3PXD2B_Y42], the enrichment score was inactive: 0.399.

On to KTAFSYTSSST [SIM1_Y356_P352T], for which the enrichment score was inactive: 0.582.

On to AIGFEYSEINI [SIGLEC12_Y588_YF], for which the enrichment score is inactive: 0.774.

As to KSNSDYVDVLP [SH2D1B_Y127_N122K], the enrichment score is inactive: 0.585.

With LLREWYVQDPF [SIX3_Y225_L226V_YF], the enrichment score was inactive: 1.9.

For LLREWYLPDPY [SIX3_Y225_Q227P], the enrichment score was inactive: 2.09.

As for GQSKGYRPKLY [SIPA1L3_Y1376], the enrichment score was inactive: 0.44.

Take LLREWYLPDPF [SIX3_Y225_Q227P_YF]: the enrichment score was inactive: 2.02.

In the case of QFQLKYSETPF [SIX6OS1_Y129_YF], the enrichment score was inactive: 0.859.

For AKKVFYVNETR [SHH_Y253_I255N], the enrichment score was inactive: 1.19.

Regarding AIGYEYSEINI [SIGLEC12_Y588], the enrichment score was inactive: 1.39.

Turning to ERFSFYGMKAV [SLC15A2_Y61_YF], the enrichment score is inactive: 0.878.

Consider PTYKHYANSTQ [SLC12A3_Y70_E68K], for which the enrichment score is inactive: 0.423.

As to ALLVFYAATIA [SLC20A2_Y187_P184L], the enrichment score was inactive: 1.89.

In another assay the target is SHP2 N-SH2 domain L43F. Described as above. Particulars: peptide library: pTyr-Var.
On to AIFWRYSKFFD [SH3PXD2B_Y45_R43W_YF], for which the enrichment score was inactive: 2.27.

Consider RPSGRYPVARR [SHANK3_Y1569], for which the enrichment score is inactive: 0.284.

As for PGQRVYVVAER [SHH_Y316], the enrichment score was inactive: 0.893.

Consider AIGCEYSEINI [SIGLEC12_Y588_Y586C], for which the enrichment score was inactive: 0.984.

For the molecule RPGGRYPVARR [SHANK3_Y1569_S1566G], the enrichment score was inactive: 0.227.

With STEAIYRRYSK [SH3PXD2B_Y42], the enrichment score is inactive: 0.295.

For KTAFSYTSSST [SIM1_Y356_P352T], the enrichment score is inactive: 0.879.

As to AIGFEYSEINI [SIGLEC12_Y588_YF], the enrichment score is inactive: 1.08.

Consider KSNSDYVDVLP [SH2D1B_Y127_N122K], for which the enrichment score was inactive: 0.777.

LLREWYVQDPF [SIX3_Y225_L226V_YF]: the enrichment score is inactive: 1.9.

With LLREWYLPDPY [SIX3_Y225_Q227P], the enrichment score was inactive: 2.06.

GQSKGYRPKLY [SIPA1L3_Y1376]: the enrichment score was inactive: 0.413.

LLREWYLPDPF [SIX3_Y225_Q227P_YF]: the enrichment score was inactive: 2.19.

Consider QFQLKYSETPF [SIX6OS1_Y129_YF], for which the enrichment score was inactive: 0.939.

Consider AKKVFYVNETR [SHH_Y253_I255N], for which the enrichment score is inactive: 1.21.

Regarding AIGYEYSEINI [SIGLEC12_Y588], the enrichment score was active: 3.66.

On to ERFSFYGMKAV [SLC15A2_Y61_YF], for which the enrichment score was inactive: 0.675.

Consider PTYKHYANSTQ [SLC12A3_Y70_E68K], for which the enrichment score was inactive: 0.391.

As to ALLVFYAATIA [SLC20A2_Y187_P184L], the enrichment score is inactive: 1.84.

In the next assay the target is SHP2 N-SH2 domain T42A. Described as above. The settings on record: peptide library: pTyr-Var.
With AIFWRYSKFFD [SH3PXD2B_Y45_R43W_YF], the enrichment score was inactive: 2.3.

For the molecule RPSGRYPVARR [SHANK3_Y1569], the enrichment score is inactive: 0.333.

Take PGQRVYVVAER [SHH_Y316]: the enrichment score is inactive: 0.795.

As for AIGCEYSEINI [SIGLEC12_Y588_Y586C], the enrichment score was inactive: 1.23.

In the case of RPGGRYPVARR [SHANK3_Y1569_S1566G], the enrichment score was inactive: 0.201.

Take STEAIYRRYSK [SH3PXD2B_Y42]: the enrichment score is inactive: 0.42.

For the molecule KTAFSYTSSST [SIM1_Y356_P352T], the enrichment score is inactive: 0.788.

For AIGFEYSEINI [SIGLEC12_Y588_YF], the enrichment score is inactive: 0.749.

For KSNSDYVDVLP [SH2D1B_Y127_N122K], the enrichment score was inactive: 0.578.

On to LLREWYVQDPF [SIX3_Y225_L226V_YF], for which the enrichment score is inactive: 2.01.

Take LLREWYLPDPY [SIX3_Y225_Q227P]: the enrichment score was inactive: 2.37.

For the molecule GQSKGYRPKLY [SIPA1L3_Y1376], the enrichment score is inactive: 0.439.

On to LLREWYLPDPF [SIX3_Y225_Q227P_YF], for which the enrichment score is inactive: 2.12.

For the molecule QFQLKYSETPF [SIX6OS1_Y129_YF], the enrichment score was inactive: 0.925.

AKKVFYVNETR [SHH_Y253_I255N]: the enrichment score is inactive: 0.991.

Consider AIGYEYSEINI [SIGLEC12_Y588], for which the enrichment score is active: 13.5.

For ERFSFYGMKAV [SLC15A2_Y61_YF], the enrichment score is inactive: 0.72.

For the molecule PTYKHYANSTQ [SLC12A3_Y70_E68K], the enrichment score was inactive: 0.494.

On to ALLVFYAATIA [SLC20A2_Y187_P184L], for which the enrichment score was inactive: 1.48.

Another assay addresses SHP2 N-SH2 domain T52S. The assay is described as above. The settings on record: peptide library: pTyr-Var.
Regarding AIFWRYSKFFD [SH3PXD2B_Y45_R43W_YF], the enrichment score is inactive: 2.26.

Regarding RPSGRYPVARR [SHANK3_Y1569], the enrichment score was inactive: 0.15.

As to PGQRVYVVAER [SHH_Y316], the enrichment score is inactive: 0.851.

On to AIGCEYSEINI [SIGLEC12_Y588_Y586C], for which the enrichment score was inactive: 1.02.

For the molecule RPGGRYPVARR [SHANK3_Y1569_S1566G], the enrichment score is inactive: 0.154.

As to STEAIYRRYSK [SH3PXD2B_Y42], the enrichment score was inactive: 0.463.

Take KTAFSYTSSST [SIM1_Y356_P352T]: the enrichment score is inactive: 0.74.

Regarding AIGFEYSEINI [SIGLEC12_Y588_YF], the enrichment score is inactive: 0.84.

Consider KSNSDYVDVLP [SH2D1B_Y127_N122K], for which the enrichment score is inactive: 0.74.

With LLREWYVQDPF [SIX3_Y225_L226V_YF], the enrichment score is inactive: 2.16.

As for LLREWYLPDPY [SIX3_Y225_Q227P], the enrichment score was inactive: 2.22.

GQSKGYRPKLY [SIPA1L3_Y1376]: the enrichment score is inactive: 0.696.

For the molecule LLREWYLPDPF [SIX3_Y225_Q227P_YF], the enrichment score was inactive: 2.22.

Regarding QFQLKYSETPF [SIX6OS1_Y129_YF], the enrichment score was inactive: 0.802.

As to AKKVFYVNETR [SHH_Y253_I255N], the enrichment score was inactive: 0.805.

Consider AIGYEYSEINI [SIGLEC12_Y588], for which the enrichment score is active: 4.08.

With ERFSFYGMKAV [SLC15A2_Y61_YF], the enrichment score is inactive: 0.741.

For PTYKHYANSTQ [SLC12A3_Y70_E68K], the enrichment score is inactive: 0.689.

For ALLVFYAATIA [SLC20A2_Y187_P184L], the enrichment score is inactive: 1.77.

For a further assay, the target named is SHP2 N-SH2 domain wild-type. The assay is described as above. Particulars: peptide library: pTyr-Var.
For AIFWRYSKFFD [SH3PXD2B_Y45_R43W_YF], the enrichment score is inactive: 2.39.

Consider RPSGRYPVARR [SHANK3_Y1569], for which the enrichment score is inactive: 0.294.

On to PGQRVYVVAER [SHH_Y316], for which the enrichment score is inactive: 1.01.

On to AIGCEYSEINI [SIGLEC12_Y588_Y586C], for which the enrichment score was inactive: 1.65.

Regarding RPGGRYPVARR [SHANK3_Y1569_S1566G], the enrichment score was inactive: 0.225.

Consider STEAIYRRYSK [SH3PXD2B_Y42], for which the enrichment score was inactive: 0.426.

As for KTAFSYTSSST [SIM1_Y356_P352T], the enrichment score was inactive: 0.84.

Consider AIGFEYSEINI [SIGLEC12_Y588_YF], for which the enrichment score is inactive: 0.997.

For KSNSDYVDVLP [SH2D1B_Y127_N122K], the enrichment score was inactive: 0.699.

For the molecule LLREWYVQDPF [SIX3_Y225_L226V_YF], the enrichment score is inactive: 1.77.

On to LLREWYLPDPY [SIX3_Y225_Q227P], for which the enrichment score is inactive: 2.33.

Take GQSKGYRPKLY [SIPA1L3_Y1376]: the enrichment score was inactive: 0.566.

LLREWYLPDPF [SIX3_Y225_Q227P_YF]: the enrichment score was inactive: 2.05.

Turning to QFQLKYSETPF [SIX6OS1_Y129_YF], the enrichment score was inactive: 1.03.

In the case of AKKVFYVNETR [SHH_Y253_I255N], the enrichment score is inactive: 1.2.

Consider AIGYEYSEINI [SIGLEC12_Y588], for which the enrichment score was inactive: 1.36.

ERFSFYGMKAV [SLC15A2_Y61_YF]: the enrichment score is inactive: 0.914.

PTYKHYANSTQ [SLC12A3_Y70_E68K]: the enrichment score was inactive: 0.767.

On to ALLVFYAATIA [SLC20A2_Y187_P184L], for which the enrichment score was inactive: 1.87.
